In PubChem BioAssay AID1963576 (National Center for Advancing Translational Sciences (NCATS), 2024):
The whole screen tested about 46,000 compounds, of which about 60 (0.1%) were called active. Roughly 3% stayed inconclusive and do not appear here. Calls follow the shape of the dose curve; as a rule, active = well fitted inhibition curve with a large enough effect; inconclusive = small, poorly fitted or top-dose-only effect; inactive = no such curve, though single readings can be large or run the other way. The list shows a part of the results.

Assay: Primary qHTS assay for Inhibitors of ovarian cancer metastasis using an organotypic tumor microenvironment (TME) model. Also: nearly all actives have a fitted effect of over 65% in size.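 As to activity change, negative = inhibition: plate controls were DMSO wells for no effect and tomatine positive control wells for full effect.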
Conditions: SKOV3ip1-GFP adhesion/invasion on 3D omental model, fluorescence; series mostly up to 45.8 µM; activity change, negative = inhibition: at the top concentration
Outline: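 Adhesion/invasion was scored as fixed GFP-labeled SKOV3ip1 cell counts (488/509 nm), normalized to DMSO and tomatine controls. Cancer cells in serum-free medium, with four compound doses (0.36-46 umol/L), sat 2 hr at RT then 16 hr at 37 C on a 48 hr fibroblast/mesothelial/ECM culture.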

Activity change, negative = inhibition, inactive:
O=C(NCC(c1ccc2c(c1)OCO2)N1CCOCC1)C(=O)Nc1cccc(Cl)c1 (stereo not given) -28.4%
Cc1cccc(Cn2c(=O)n(CCC(=O)NCCc3ccc(Cl)cc3)c(=O)c3sccc32)c1 -2.87%
CCOc1ccc(NC(=O)c2ccc3c(c2)CCN3S(=O)(=O)c2ccc(Cl)cc2)cc1 11.5%
COc1ccc(-c2nc3c(c(SCC(=O)Nc4ccccc4F)n2)Cc2cc(C)ccc2O3)cc1 10.4%
Cc1ccc(NC(=O)CCCc2nnc3n(C)c(=O)c4sccc4n23)cc1F -5.59%
CC(=O)c1ccc(NC(=O)c2cc(S(=O)(=O)N3CCCCCC3)cn2C)cc1 2.3%
Cc1ccc(C)c(N2CCN(C(=O)C3CCCN(Cc4nc(-c5cccc(Cl)c5)oc4C)C3)CC2)c1 (stereo not given) 1.57%
CC1CCn2c(nc3cc(C(=O)NCc4ccccc4)ccc32)C1 (stereo not given) 7.54%
CCCNC(=O)c1ccc2c(c1)sc1nc(-c3ccc(C)cc3)cn12 11%
NC(=O)C1(N2CCCCC2)CCN(C(=O)Nc2ccc(F)cc2)CC1 0.0056%
Cc1ccc(-c2cn(-c3cccc(Cl)c3)c(S(=O)(=O)CC(=O)Nc3cccc(C)c3)n2)cc1 2.46%
COc1ccc(CCNc2nc(-c3ccc(OC)c(OC)c3)cc(C(F)(F)F)n2)cc1OC 32.6%
Cc1cc(C)cc(-n2ccn(CC(=O)Nc3cc(C)ccc3C)c(=O)c2=O)c1 -0.43%
CCn1cc(C(=O)NCCCN2CCCC(C)C2)c(=O)c2cc(S(=O)(=O)N(C)C3CCCCC3)ccc21 (stereo not given) 18.1%
O=C(NCc1ccccc1)C1CCN(S(=O)(=O)c2ccc3c(c2)CCCN3C(=O)C2CCC2)CC1 -7.49%
O=C(O)c1nc(=O)[nH]c(=O)[nH]1 -6.94% [at 23.2 µM]
CN(C)CCCN=c1c2ccccc2n(C)c2[nH]c(=O)n(C)c(=O)c12 48.4%
COc1cccc(OC)c1C(=O)Nc1cccc(-c2cn3ccsc3n2)c1 13.3%
CCOc1ccc(N2CC(c3nc4ccccc4n3Cc3ccccc3F)CC2=O)cc1 (stereo not given) 2.35%
COc1ccc(-c2nnc(SCC(=O)NC3CCCC3)nc2-c2ccc(OC)c(OC)c2)cc1OC 7.42%
Cc1ccc(NC(=O)NCc2cccn2Cc2ccccc2)c(C)c1 4.7%
CCCCCSc1ncnc2c1sc1nc(N3CCOCC3)c3c(c12)CCCC3 0.498%
CCOC(=O)c1scc(-c2ccc(C)cc2)c1S(=O)(=O)N1CCN(c2ccccc2F)CC1 -12.8%
O=C(CCC1N=C2c3ccccc3N=C(SCc3cccc(F)c3)N2C1=O)NCc1cccs1 (stereo not given) -4.63%
COC(=O)c1ccc(-c2nc3cc(NC(C)=O)ccc3o2)cc1 0.168%
CCOc1ccc(CCNC(=O)c2sc3ncccc3c2-n2cccc2)cc1OCC 1.43%
Cc1nc2nc(SCC(=O)NC3CCC(C)CC3)nn2c(C)c1Cc1ccccc1 (stereo not given) 5.89%
CCCCc1nn2c(=O)cc(COC(=O)C3CCCCC3)nc2s1 36.1%
CCC(C)NC(=O)Cn1c(=O)n(-c2ccc(C)c(C)c2)c(=O)c2c3c(sc21)CCCCC3 (stereo not given) -1.85%
COc1ccc(OC)c(NC(=O)c2cc(S(=O)(=O)NCCc3ccc(Cl)cc3)ccc2F)c1 8.45%
COc1ccc(-c2nc(CNC(=O)Nc3ccccc3)c(C)o2)cc1 -5.59%
COc1cccc(Cn2c(CNS(=O)(=O)c3ccc(C(C)(C)C)cc3)nc3cccnc32)c1 -5.64%
CCCN(c1ccc(C(C)C)cc1)S(=O)(=O)c1ccc2c(c1)oc(=O)n2CC(=O)OCC -16.1%
COc1ccc(-n2c(=O)c3ccccc3n(Cc3cccc(C)c3)c2=O)cc1 7.07%
COc1cc2c(-c3cc(Br)ccc3O)nc3c(c(C)nn3-c3ccccc3)c2cc1OC -0.178%
O=C(Nc1nnc(S(=O)(=O)Nc2ccccc2)s1)C1CCCCC1 -6.37%
CCOC(=O)Cn1c(=O)n(CC2CCCO2)c2nc(-c3ccc(C(C)C)cc3)nc(C(N)=O)c21 (stereo not given) -1.89%
CCOc1ccc(C(=O)NCC(c2ccco2)S(=O)(=O)c2cccs2)cc1 (stereo not given) -15.3%
COC(=O)c1ccc(C(=O)OC)c(NC(=O)c2cnn3c(C(F)F)cc(-c4ccccc4)nc23)c1 2.01%
Cc1nn(-c2ccc(N3CCCC3)nn2)c(C)c1CCC(=O)N1CCN(c2ccccc2)CC1 7.73%
CCN(Cc1ccccc1)C(=O)c1nn(-c2ccc(OC)cc2)c(=O)c2c1c1ccccc1n2C 1.59%
CCC1CN(C(=O)Nc2ccc(Br)cc2F)c2ccccc2S1 (stereo not given) 4.38%
CCOc1ccc(OCC)c(NC(=O)CCc2nc3cccnc3n2-c2ccccc2)c1 -14.9%
COc1ccccc1N1CCN(C(=O)CSc2n[nH]c(-c3ccccc3Cl)n2)CC1 -2.13%
O=C(NCC(c1ccc(Cl)cc1)N1CCCCC1)c1ccccc1F (stereo not given) -2.92%
COc1ccc(NC(=O)Cn2c(=O)n(-c3cccc(C(F)(F)F)c3)c(=O)c3sccc32)cc1 0.279%
CCCOc1ccc(CNC(=O)C2CCCN(c3nc4c(C)cc(C)cc4s3)C2)cc1 (stereo not given) 9.57%
O=C(NCc1ccc(F)cc1)c1cnc(N2CCCCC2)c2ccccc12 9.47%
CCN(CC)C(=O)C1CCN(c2nnc(C)c3c(C)n(-c4ccc(Cl)cc4)nc23)CC1 -3.02%
C#CCn1c(C2CC(=O)N(c3ccc(OCC)cc3)C2)nc2ccccc21 (stereo not given) -3.95%
COc1cc(OC)cc(C(=O)Nc2ccc3nc(Nc4cccc(C(F)(F)F)c4)cc(C)c3c2)c1 -17.3%
COc1ccc(C(=O)Nc2nnc(C)s2)cc1 -6.14%
CC(C)Cn1c(=O)c2ccccc2n2c(CCC(=O)N3CCN(c4ccccc4)CC3)nnc12 19.8%
COc1cc(OC)c(NC(=O)N2CCc3cc(OC)c(OC)cc3C2CC(=O)O)cc1Cl (stereo not given) 5.98%
COc1ccc(N2CCN(c3ncnc4onc(-c5ccc(F)cc5)c34)CC2)cc1 1.02%
Cc1ccc(CCNC(=O)c2ccc3c(c2)N(Cc2ccccc2)C(=O)c2ccccc2S3=O)cc1 (stereo not given) 6.01%
COc1ccc(NC(=O)Cn2c(=O)n(CCCC(=O)NCCc3ccc(C)cc3)c(=O)c3ccccc32)cc1Cl -9.54%
CC(=O)N1CCc2c(sc3c2c(=O)n(CCc2ccccc2)c(=O)n3CC(=O)Nc2ccc(C)c(F)c2)C1 -7.51%
COc1cccc2c1Oc1ncccc1N(c1ccc(C(=O)NCc3ccccc3Cl)s1)C2 9.61%
O=C(CSc1nnc(-c2ccc(Cl)cc2)o1)Nc1ccc(F)cc1 2.63%
Nc1nc(Cl)nc2c1ncn2[C@@H]1O[C@H](CO)[C@@H](O)[C@H]1F -2.91%
COc1ccc(Nc2cc(C)nc3c(C)c(C)ccc23)cc1 5.39%
Cc1ccn2c(Nc3ccc4c(c3)OCCO4)c(-c3cccs3)nc2c1 -16.6%
Cc1ccc2c(c1)Cc1c(nc(-c3ccc(Cl)cc3)nc1SCC(=O)N1CCCCC1)O2 11.3%
Cc1ccc2onc(CNC(=O)Nc3cc(F)ccc3F)c2c1 -2.3%
Cc1ncc(-c2ccnc(Nc3ccc(S(C)(=O)=O)cc3)n2)n1C(C)C 6.8%
Cc1ccc(Cl)cc1NC(c1ccc(F)cc1)c1nnc(-c2ccccc2)o1 (stereo not given) 0.314%
Cc1ccc(C)c(S(=O)(=O)c2nnn3c2nc(N2CCN(C)CC2)c2sccc23)c1 -4.91%
COc1ccc(CC(=O)NCC(c2cccs2)S(=O)(=O)c2ccc(F)c(C)c2)cc1 (stereo not given) -3.63%
O=c1c2cc3c(cc2nc2sc(Nc4cccc([N+](=O)[O-])c4)nn12)OCO3 0.241%
CCCCN(C(=O)C1CCC(CNS(=O)(=O)c2cccc3nsnc23)CC1)c1ccccc1 (stereo not given) 0.347%

outcome, inactive:
O=C(NCc1ccc(F)cc1)c1ccc2nc(N3CCCCC3)sc2c1
Cc1ccc(NC(=O)CCC(=O)N2Cc3ccccc3Oc3ncccc32)cc1F
O=C(CNC(=O)c1ccccc1)OCc1cc(=O)n2ccsc2n1
CCc1ccccc1NC(=O)CN1C(=O)c2ccccc2Sc2ncccc21
CCOC(=O)c1c(S(=O)(=O)N2CCCC(C(=O)NCc3cccc(OC)c3)C2)c(C)n(C)c1C (stereo not given)
Cc1cccc(CS(=O)(=O)Cc2ccc(C(=O)NCCc3ccccc3)o2)c1
Cc1ccc(N2CC(NC(=O)c3ccc(S(=O)(=O)N4CCCC4)cc3)CC2=O)cc1C (stereo not given)
Cc1ccc(Cl)cc1N1CCN(C(=O)CCNS(=O)(=O)c2ccc3c(c2)CCN3C(=O)C2CC2)CC1
Cc1cccc(NC(=O)C(=O)NCC(c2cccnc2)N2CCc3ccccc3C2)c1C (stereo not given)
CCOc1ccc(NC(=O)c2ccc(F)c(S(=O)(=O)N(CC)Cc3ccccc3)c2)cc1
COc1ccccc1N1CCN(C(=O)c2cc(S(=O)(=O)N3CCC(C)CC3)cn2C)CC1
CCOC(=O)c1ccc(N2C(=O)c3n[nH]c(C)c3C2c2ccc(OCC)cc2)cc1 (stereo not given)
Cc1ccccc1N(C)S(=O)(=O)c1nnc(NC(=O)C(C)C)s1
CCCSc1nnc2[nH]c(=O)cc(C)n12
Cc1ccccc1NC(=O)Cn1c(=O)n(Cc2ccccc2)c(=O)c2sc3ccccc3c21
Cc1ccccc1-c1nn2c(=O)cc(CN3CCN(S(=O)(=O)c4ccc(Cl)cc4)CC3)nc2s1
COc1ccc2c(C)c(CCC(=O)NCc3ccc(Cl)cc3)c(=O)oc2c1C
COC(=O)C(NC(=O)CCc1c(C)nc2c(c(C)nn2-c2ccccc2)c1C)C(C)C (stereo not given)
CCc1ccc(S(=O)(=O)Nc2ccc(-c3ccc(N4CCCC4)nn3)cc2)cc1
Cc1ccccc1NC(=O)[C@H](CSCc1ccccc1)N1Cc2ccccc2C1=O
CCCCOC(=O)CSc1nnc(-c2ccc(C)cc2)o1
Cc1cccc(NC(=O)c2ccc(F)c(S(=O)(=O)N3CCC4(CC3)OCCO4)c2)c1
Cc1ccc(NC(=O)C(CC(C)C)NS(=O)(=O)c2ccc3c(c2)oc(=O)n3C)c(C)c1 (stereo not given)
CC(=O)Nc1ccc(NC(=O)CN(C)S(=O)(=O)c2ccc3c(c2)CCCC(=O)N3)cc1
